This note sets out measurements from paper PMC5836133.

This is one part of the list. At the low end of the ranking, values are background and their order means little.

The test system of the test is T1, GST-NbGlk1(82-244).
T1 sequence: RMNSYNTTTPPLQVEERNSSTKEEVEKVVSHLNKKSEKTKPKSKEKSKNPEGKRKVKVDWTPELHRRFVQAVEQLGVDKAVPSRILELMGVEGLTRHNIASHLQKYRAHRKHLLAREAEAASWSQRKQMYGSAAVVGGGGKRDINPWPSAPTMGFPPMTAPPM
Nature of the test: protein-binding microarray.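 Also: rank-based score ranging −0.5 to +0.5 with E above 0.45 taken as significant binding.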 The note with it: NbGlk1 is a Golden2-like transcription factor of Nicotiana benthamiana; high values mean tight binding; most listed sequences are background and not binding sites; double strand, one strand shown.
Regarding ACGCCAAT, the binding signal amounted to 0.00469 E-score.
Turning to AGCCGGAT, the binding signal was 0.129 E-score.
With ACGTGTCC the figure was -0.177 E-score; with CACGTTCA, -0.179 E-score; with AGACCGGG, -0.226 E-score.
With ACTTCCCA the figure was -0.161 E-score.
With AGATGTGA the figure was -0.0851 E-score; with AGACGGGA, -0.0756 E-score; with AAAAGAGA, 0.00507 E-score.
On to AACCTTCA, for which the binding signal came to 0.00171 E-score.
With AGTTCTTA the figure was -0.0357 E-score.
Take AGACTTTA: the binding signal was -0.0821 E-score.
Consider ATTAGCGC, for which the binding signal is -0.118 E-score.
With AGTATATG the figure was 0.114 E-score; with AGAGGCAC, -0.175 E-score; with AAGTTCCT, -0.176 E-score.
The figure for ATCAATAG is 0.157 E-score; for ACTAGGAA it is 0.0624 E-score.
With CAGAATTC the figure was 0.234 E-score; with AGCAATAC, 0.167 E-score.
In the case of AGCTGAGC, the binding signal was -0.114 E-score.
Regarding ACTAGGTC, the binding signal is -0.274 E-score.
The figure for CACGGCTA is -0.136 E-score.
With CACAGGAA the figure was -0.0682 E-score; with ACGTGCGC, -0.11 E-score; with CAATGACG, -0.0953 E-score.
On to AGGCCGAT, for which the binding signal is -0.0713 E-score.
Turning to AACCATCC, the binding signal is -0.117 E-score.
The figure for AATGATGA is 0.0583 E-score; for AATCTTAC it is 0.375 E-score.
The figure for ATCTTCCG is 0.316 E-score; for AGTAAGAA it is 0.214 E-score; for CACGCAGC it is -0.217 E-score.
The figure for ACGGTGCA is -0.0251 E-score; for ATAGATAC it is 0.26 E-score; for ACCACTGG it is -0.207 E-score.
Take ACCTAAAC: the binding signal is -0.0643 E-score.
The figure for CACGACGG is -0.238 E-score; for CACTGATG it is -0.0898 E-score; for ATCTCCGC it is 0.293 E-score.
The figure for AGCGAGAC is -0.0553 E-score; for AAACCATC it is -0.128 E-score; for ACGATCGC it is 0.252 E-score.
The figure for AAAGCATG is -0.0603 E-score; for ATAATGAT it is 0.14 E-score; for ACCAAGAA it is 0.0219 E-score.
With ATACCATC, the binding signal came to 0.0206 E-score.
With AATATGCA the figure was 0.16 E-score; with ATTGCTCG, 0.0577 E-score; with AGCTTCCG, -0.131 E-score.
With AGAAGCAT the figure was -0.0575 E-score; with AATCAGCA, 0.322 E-score.
The figure for AGCTGGAG is -0.177 E-score; for ATTGGGGC it is -0.0369 E-score.
Turning to CACCGGCC, the binding signal was -0.193 E-score.
The figure for ACCTCGCT is -0.241 E-score; for ACACAGTC it is -0.098 E-score.
The figure for AACTTAGG is -0.0227 E-score.
The figure for ACCTACCC is -0.0568 E-score.
As for AAGACAAG, the binding signal is -0.054 E-score.
The figure for ACAATTGA is 0.0791 E-score.
The figure for AGTCTCTG is -0.0468 E-score; for AGCAATTA it is 0.0438 E-score.
With AAAGGTTC the figure was -0.0213 E-score.
In the case of CAAGCCTA, the binding signal was -0.143 E-score.
The figure for AAGCAATA is 0.111 E-score.
With AGGCAGTA the figure was -0.0286 E-score; with AAGTACGT, -0.041 E-score.
The figure for ACGTCTAC is -0.216 E-score.
Consider AAACCACT, for which the binding signal was determined as 0.0141 E-score.
Consider ACATGATG, for which the binding signal is -0.0786 E-score.
The figure for AATGAAGG is -0.0153 E-score.
The figure for AAGCAGAC is -0.0365 E-score; for ATCGAAAT it is 0.387 E-score; for AACTAAGT it is -0.116 E-score.
The figure for CAGCGCCC is -0.252 E-score; for ATGGGTTA it is -0.023 E-score.
Turning to AGCCCCCT, the binding signal is -0.324 E-score.
With AGCCAAGA, the binding signal was -0.0527 E-score.
With AGTGTTAC the figure was -0.0537 E-score.
The figure for AGCTGAAT is -0.1 E-score; for ACCGAACG it is -0.108 E-score; for ACCCCTTA it is -0.0928 E-score.
The figure for AATTCTGC is 0.204 E-score.
As to ATTAATGG, the binding signal is -0.0227 E-score.
Sequence AGTGGCGA yielded a binding signal of 0.0591 E-score.
Regarding ACCGGAGA, the binding signal turned out to be 0.0207 E-score.
With ATAGTGTC the figure was -0.0267 E-score; with AGAGTTGG, -0.129 E-score.
The sequence ATCAACTA came in with a binding signal of 0.088 E-score.
For the sequence AACGAGCC, the binding signal was -0.189 E-score.
Consider ACTTGGAG, for which the binding signal was -0.154 E-score.
On to CACTGGAG, for which the binding signal is -0.105 E-score.
The figure for ACACACAT is -0.0292 E-score.
With ATGAGGTG the figure was -0.0248 E-score; with ACGTTAGC, -0.176 E-score; with AACTCTAG, -0.106 E-score.
With AGATACGC, the binding signal came out at 0.422 E-score.
The figure for AGGTGCAA is -0.0203 E-score; for AAAGAGCA it is -0.0635 E-score; for AGCATCCA it is -0.0946 E-score.
With AGCGTACT the figure was -0.0933 E-score.
Turning to CACGCTCA, the binding signal was -0.17 E-score.
With ACAAATGG the figure was -0.1 E-score.
The figure for AATATCTG is 0.423 E-score.
The figure for AAGGTTGC is -0.218 E-score; for ACGTTCAC it is -0.12 E-score.
Consider CACCCCAA, for which the binding signal was -0.16 E-score.
The figure for CAGAGACC is -0.219 E-score; for CACTCTTC it is -0.175 E-score; for ATAAGGAT it is 0.22 E-score.
With CACTAGCG the figure was -0.168 E-score; with ACTCGGGC, -0.271 E-score.
With AAGAACCC, the binding signal is -0.162 E-score.
As to AACTGGGC, the binding signal is -0.284 E-score.
The figure for CACCGGTA is -0.0313 E-score; for ACGTCGTG it is -0.0132 E-score.
With AGGCTGAC the figure was -0.163 E-score; with AGATATCA, 0.434 E-score.
In the case of AGTCACAT, the binding signal was -0.13 E-score.
With AAGTTGCC the figure was -0.168 E-score; with AATAAACC, -0.162 E-score.
The figure for AAAGTTAT is -0.0306 E-score.
AGCTGTGC: the binding signal was -0.166 E-score.
With AGCGAGAA the figure was -0.0484 E-score; with AGCCCCGC, -0.211 E-score.
The figure for AGTGACAT is -0.0431 E-score.
With AAGTAGCT, the binding signal was -0.204 E-score.
Regarding CACGCCCC, the binding signal is -0.34 E-score.
The figure for CAGAGTGG is -0.127 E-score; for CACAATAG it is 0.102 E-score; for ACATCTCA it is -0.0129 E-score.
The figure for CAACAGAA is 0.0376 E-score.
The figure for ACGGAACT is -0.0812 E-score.
Regarding ACCCGACT, the binding signal is -0.167 E-score.
As to ACAACAAC, the binding signal was -0.0759 E-score.
The figure for AGAGTAAG is 0.0707 E-score; for ACGTCACA it is -0.00686 E-score; for ACTGTATA it is 0.0879 E-score.
With AACATACA the figure was 0.168 E-score; with AGCGGAAG, -0.147 E-score.
AATACAGA had a binding signal of 0.148 E-score.
The figure for ATATCTAC is 0.392 E-score; for AGAGCACG it is -0.199 E-score; for AGCAACAG it is -0.125 E-score.
The figure for AGACGGTG is -0.157 E-score; for ACTCAAGT it is -0.03 E-score.
ACCGATTG: the binding signal was 0.114 E-score.
With CAGCGCAC the figure was -0.196 E-score; with AAGAGTGT, -0.138 E-score.
For the sequence ACAGCTCA, the binding signal is -0.188 E-score.
In turn, ATTGAGTA had a binding signal of 0.0266 E-score.
ATTCCTAG had a binding signal of 0.202 E-score.
For ACTCTTGC, the binding signal is -0.159 E-score.
The figure for ACTTTAAG is 0.0156 E-score; for AGCTACTC it is -0.279 E-score.
With AACAGCAC the figure was -0.258 E-score.
With AGATCGCA the figure was 0.396 E-score; with AATCTGCA, 0.414 E-score.
As to ACTCCCGG, the binding signal was -0.156 E-score.
For AGTGGAGC, the binding signal is -0.109 E-score.
Consider ACTCCGCG, for which the binding signal was -0.00392 E-score.
In the case of ATTTCTTG, the binding signal stood at 0.258 E-score.
With ATATCCAC the figure was 0.393 E-score; with AGATATTG, 0.375 E-score; with AGTGAGAA, -0.0221 E-score.
The figure for AAATCGAC is 0.341 E-score; for ACAGCGCG it is 0.00111 E-score; for AAAAACGC it is 0.0283 E-score.
The figure for AAAATAGG is 0.00995 E-score.
Take AGCCTAAG: the binding signal was -0.042 E-score.
With AAACGGGC the figure was -0.0361 E-score.
